Test results: US20100004180A1, “Agents for the Detection and Modulation of B-Cells and Antibodies” (priority 2008, published 2010)
Where no end group is shown, it is not given here.

Assays:
natural IgM = test: ELISA: inhibition of natural IgM (Nab) binding to W-determinants by indole compounds; settings: in vitro; compound added into the incubation medium
IgM41 = test: ELISA IgM-binding competition, polyspecific IgM41; set-up: species or system Balb/c mice; settings: IgM 2 μg/ml; for inhibition of IgM41 binding to T7-PEGWT: TBS/1% BSA/0.05% Tween-20, FIG. 2A
IgM58 = test: ELISA IgM-binding competition, polyspecific IgM58; set-up: species or system Balb/c mice; settings: IgM 2 μg/ml, TBS-BT; FIG. 2B
IgM60 = test: ELISA IgM-binding competition, polyspecific IgM60; set-up: species or system Balb/c mice; settings: IgM 2 μg/ml, TBS-BT; FIG. 2C

CC[C@H](C)[C@H](NC(=O)Cc1c[nH]c2ccccc12)C(=O)O [N-(indolylacetyl)-L-Ile]
inhibition of IgM binding to W-determinants (natural IgM): inhibition

Ac-DGA-DLLDR
inhibition of IgM41 binding to T7-PEGWT (IgM41): No inhibition
inhibition of IgM58 binding to T7-RLTPR (IgM58): not
inhibition of IgM60 binding to T7-DLLDR by synthetic peptides (IgM60): significantly inhibited

Ac-PEGWN [synthetic peptide with W-determinant, homologous to T7-PEGWT, reacts with IgM41]
inhibition of IgM41 binding to Flu(6)-BSA (IgM41; TBS-BT): no effect
inhibition of IgM41 binding to NIP(31)-BSA (IgM41; TBS-BT): no effect
inhibition of IgM41 binding to NP(24)-BSA (IgM41; TBS-BT): weakly inhibited
inhibition of IgM41 binding to T7-PEGWT (IgM41): completely inhibited
inhibition of IgM58 binding to T7-RLTPR (IgM58): not
inhibition of IgM60 binding to T7-DLLDR by synthetic peptides (IgM60): ineffective

O=C(O)CC(NC(=O)Cc1c[nH]c2ccccc12)C(=O)O (racemic) [N-(indolylacetyl)-DL-Asp]
inhibition of IgM binding to W-determinants (natural IgM): inhibition

C[C@H](NC(=O)Cc1c[nH]c2ccccc12)C(=O)O [N-(indolylacetyl)-L-Ala]
inhibition of IgM binding to W-determinants (natural IgM): inhibition

Ac-DLLDR [synthetic peptide with L-determinant, without DGA spacer]
inhibition of IgM60 binding to T7-DLLDR by synthetic peptides (IgM60): weakly inhibited

Ac-RLTPR [synthetic peptide with TP-determinant, reacts with IgM58]
inhibition of IgM41 binding to T7-PEGWT (IgM41): No inhibition
inhibition of IgM58 binding to T7-RLTPR (IgM58): inhibited
inhibition of IgM60 binding to T7-DLLDR by synthetic peptides (IgM60): ineffective
